Data reported in the supplement of paper PMC9174493.
Counter-ions that a name gives are not always drawn. The list shows a part of the results. Single values of this set are uncertain. Values with irradiation are relative to irradiated vehicle.

Key:
[1] = system: A549-Dual; assay: NF-kB reporter (SEAP) activity, viability-corrected, relative to vehicle (fold change vs vehicle); higher = more activation of STING-IRF / NF-kB immune response reporter
[2] = system: A549-Dual; assay: ISRE reporter (Lucia luciferase) activity, viability-corrected, relative to vehicle (fold change vs vehicle); higher = more activation of STING-IRF / NF-kB immune response reporter
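Wherever NF-kB reporter (SEAP) activity, viability-corrected, relative to vehicle is given: viability correction based on the alamar blue assay, with concentrations leaving 10% survival or less dropped.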

| SMILES | NF-kB reporter ([1]; 0.1 µM, irradiation: 8 Gy/4 fr) | NF-kB reporter ([1]; 0.1 µM, irradiation: none) | NF-kB reporter ([1]; 0.3 µM, irradiation: 8 Gy/4 fr) | NF-kB reporter ([1]; 0.3 µM, irradiation: none) | NF-kB reporter ([1]; 1 µM, irradiation: 8 Gy/4 fr) | NF-kB reporter ([1]; 1 µM, irradiation: none) | NF-kB reporter ([1]; 3 µM, irradiation: 8 Gy/4 fr) | NF-kB reporter ([1]; 3 µM, irradiation: none) | NF-kB reporter ([1]; 10 µM, irradiation: 8 Gy/4 fr) | NF-kB reporter ([1]; 10 µM, irradiation: none) | ISRE reporter ([2]; 0.1 µM, irradiation: 8 Gy/4 fr) | ISRE reporter ([2]; 0.1 µM, irradiation: none) | ISRE reporter ([2]; 0.3 µM, irradiation: 8 Gy/4 fr) | ISRE reporter ([2]; 0.3 µM, irradiation: none) | ISRE reporter ([2]; 1 µM, irradiation: 8 Gy/4 fr) | ISRE reporter ([2]; 1 µM, irradiation: none) | ISRE reporter ([2]; 3 µM, irradiation: 8 Gy/4 fr) | ISRE reporter ([2]; 3 µM, irradiation: none) | ISRE reporter ([2]; 10 µM, irradiation: 8 Gy/4 fr) | ISRE reporter ([2]; 10 µM, irradiation: none) |
| --- | --- | --- | --- | --- | --- | --- | --- | --- | --- | --- | --- | --- | --- | --- | --- | --- | --- | --- | --- | --- |
| CCN(C(=O)c1c(O)c2c(Cl)cccc2n(C)c1=O)c1ccccc1 [Laquinimod] | 1.16 | 1.9 | 1.24 | 1.76 | 1.66 | 1.38 | 1.84 | 1.42 | 0.988 | 0.986 | 0.992 | 1.58 | 0.961 | 1.15 | 0.902 | 1.04 | 0.857 | 0.542 | 0.446 | 0.42 |
| CCC(=O)OCC(=O)C1(OC(=O)CC)C(C)CC2C3CCC4=CC(=O)C=CC4(C)C3(F)C(O)CC21C (stereo not given) [Betamethasone Dipropionate] | 0.36 | 0.654 | 0.409 | 0.692 | 0.339 | 0.623 | 0.379 | 0.576 | 0.394 | 0.539 | 0.0695 | 0.198 | 0.0602 | 0.221 | 0.0556 | 0.241 | 0.0441 | 0.187 | 0.0549 | 0.208 |
| Cc1coc2c1C(=O)C(=O)c1c-2ccc2c(C)cccc12 [Tanshinone I] | 0.878 | 1.32 | 1.05 | 1.36 | 1.44 | 1.06 | 1.53 | 1.06 | 1.05 | 1.04 | 0.986 | 0.994 | 0.858 | 0.992 | 0.846 | 0.639 | 0.941 | 0.836 | 0.536 | 0.51 |
| O=C(Nc1ccc(O)cc1)c1ccccc1O [Osalmid] | 1.15 | 1.43 | 1.17 | 1.63 | 1.46 | 1.05 | 1.34 | 1.15 | 1.24 | 1.23 | 0.983 | 1.03 | 0.9 | 1.01 | 0.761 | 0.78 | 0.792 | 0.917 | 0.654 | 0.933 |
| O=c1ccc2cc3ccoc3cc2o1 [Psoralen] | 1.08 | 0.711 | 1.03 | 0.653 | 0.986 | 0.798 | 0.753 | 1.05 | 0.867 | 0.816 | 1.06 | 0.697 | 0.963 | 0.65 | 0.826 | 0.721 | 0.775 | 0.931 | 0.839 | 0.803 |
| O=C(O)c1ccccc1O.[NaH] [Sodium salicylate] | 0.833 | 1.11 | 0.849 | 1.39 | 1.12 | 0.846 | 0.932 | 0.966 | 0.882 | 0.864 | 0.946 | 0.857 | 0.78 | 0.872 | 0.774 | 0.832 | 0.79 | 0.928 | 0.852 | 0.876 |
| COc1ccc(-c2cc(=S)ss2)cc1 [Anethole trithione] | 1.12 | 1.16 | 0.918 | 1.21 | 0.971 | 1.58 | 0.943 | 1.19 | 1.09 | 1.13 | 1.01 | 1.37 | 1.05 | 1.18 | 1.12 | 1.26 | 1.03 | 1 | 1.04 | 1.24 |
| C=C1CCC2C(C)(CO)C(O)CCC2(C)C1C/C=C1/C(=O)OCC1O (stereo not given) [Andrographolide] | 0.951 | 0.754 | 0.898 | 0.781 | 1.04 | 0.8 | 0.642 | 0.86 | 0.692 | 0.516 | 0.992 | 0.981 | 0.839 | 1.15 | 1 | 0.909 | 0.753 | 0.815 | 0.7 | 0.737 |
| CNC(=O)c1cc(Oc2ccc(NC(=O)Nc3ccc(Cl)c(C(F)(F)F)c3)cc2)ccn1.Cc1ccc(S(=O)(=O)O)cc1 [Sorafenib Tosylate] | 1.06 | 0.982 | 1.06 | 1.05 | 0.794 | 0.986 | 0.61 | 0.862 | 0.821 | 1.02 | 0.905 | 0.857 | 1.06 | 1.01 | 0.703 | 0.825 | 0.181 | 0.641 | 0.311 | 0.237 |
| Cl.O=C1NCC2(CCN(CCc3ccccc3)CC2)O1 [Fenspiride HCl] | 1.11 | 1.19 | 1.27 | 0.729 | 0.995 | 0.801 | 1.09 | 0.751 | 0.566 | 1.19 | 0.979 | 0.744 | 0.967 | 0.756 | 0.638 | 0.67 | 0.632 | 0.777 | 0.157 | 0.486 |
| Cc1ccc(S(=O)(=O)O)cc1.NC(=O)c1cccc2cn(-c3ccc(C4CCCNC4)cc3)nc12 (stereo not given) [Niraparib (MK-4827) tosylate] | 1.16 | 0.963 | 0.809 | 1.05 | 0.973 | 1.61 | 0.783 | 1.37 | 0.9 | 1.15 | 0.966 | 0.989 | 0.81 | 1.29 | 0.987 | 1.37 | 0.692 | 2.32 | 0.733 | 2.25 |
| CC(=O)OCC1OC(n2ccc(=O)[nH]c2=O)C(OC(C)=O)C1OC(C)=O (stereo not given) [uridine triacetate] | 1.16 | 0.864 | 1.06 | 0.902 | 0.785 | 0.755 | 0.787 | 1.04 | 0.8 | 0.979 | 1.04 | 0.874 | 0.959 | 0.78 | 0.908 | 0.767 | 0.857 | 0.873 | 0.887 | 0.749 |
| CC(C(=O)O)c1ccc(C(=O)c2ccccc2)s1 (stereo not given) [Tiaprofenic acid] | 1.07 | 2.08 | 1.46 | 1.79 | 1.82 | 1.43 | 1.43 | 1.29 | 1.08 | 0.829 | 1.05 | 2.06 | 1.16 | 1.27 | 1.43 | 1.2 | 0.731 | 1.11 | 1.17 | 0.997 |
| COc1cc2nccc(Oc3ccc(NC(=O)C4(C(=O)Nc5ccc(F)cc5)CC4)cc3)c2cc1OC | 0.913 | 0.972 | 0.962 | 1.08 | 0.897 | 0.904 | 0.921 | 1.07 | 1.02 | 1.38 | 0.975 | 0.944 | 0.926 | 1.1 | 0.876 | 1.21 | 0.883 | 1.56 | 1.01 | 2.24 |
| CC1CC2C3CCC4=CC(=O)C=CC4(C)C3(F)C(O)CC2(C)C1C(=O)CO (stereo not given) [Desoximetasone] | 0.567 | 0.71 | 0.878 | 0.67 | 0.928 | 0.681 | 0.959 | 0.672 | 0.718 | 0.964 | 0.0545 | 0.202 | 0.0696 | 0.243 | 0.0407 | 0.196 | 0.0635 | 0.205 | 0.0455 | 0.236 |
| CCN(CC)CCNC(=O)c1c(C)[nH]c(/C=C2\C(=O)Nc3ccc(F)cc32)c1C.O=C(O)CC(O)C(=O)O [Sunitinib Malate] | 1.05 | 1 | 1.05 | 1 | 0.912 | 1.08 | 1.09 | 0.812 | 1.27 | 1.19 | 0.987 | 0.69 | 1.1 | 0.727 | 0.799 | 0.774 | 0.9 | 0.729 | 0.832 | 0.898 |
| COc1c2occc2c(OC)c2c(=O)cc(C)oc12 [Khellin] | 1.04 | 1.54 | 0.94 | 1.4 | 1.39 | 0.984 | 1.14 | 1.18 | 0.674 | 0.952 | 1 | 1.36 | 1.01 | 0.997 | 1.09 | 0.816 | 0.619 | 0.818 | 0.69 | 0.775 |
| COC1OC2OC3(C)CCC4C(C)CCC(C1C)C24OO3 (stereo not given) [Artemether] | 0.979 | 1.07 | 1.07 | 1.05 | 0.985 | 1.5 | 0.985 | 1.23 | 1.03 | 1.21 | 1.01 | 1.33 | 1.09 | 1.22 | 1 | 1.2 | 1.21 | 1.12 | 1.15 | 1.32 |
| CC(C)c1ccc2oc3nc(N)c(C(=O)O)cc3c(=O)c2c1 [Amlexanox] | 0.857 | 1.37 | 0.925 | 1.05 | 1.04 | 0.872 | 1.05 | 0.759 | 1.04 | 1 | 1.03 | 0.879 | 0.86 | 1.05 | 0.899 | 0.989 | 0.914 | 0.934 | 0.915 | 0.791 |
| Cc1nc2ccc(CN(C)c3ccc(C(=O)NC(CCC(=O)O)C(=O)O)s3)cc2c(=O)[nH]1 (stereo not given) [Raltitrexed] | 1.27 | 1.79 | 1.4 | 1.99 | 1.2 | 1.69 | 1.4 | 1.89 | 1.33 | 1.53 | 0.643 | 2.2 | 0.733 | 2.6 | 0.591 | 2.29 | 0.659 | 2.76 | 0.632 | 2.05 |
| COc1ccc2cc(C(C)C(=O)O)ccc2c1 (stereo not given) [Naproxen] | 0.88 | 0.499 | 0.87 | 0.497 | 0.851 | 0.67 | 0.7 | 0.803 | 0.688 | 0.813 | 0.849 | 0.67 | 0.764 | 0.572 | 0.785 | 0.638 | 0.808 | 0.81 | 0.848 | 0.678 |
| CN1CCC(OC(c2ccccc2)c2ccccc2)CC1.Cl [Diphenylpyraline hydrochloride] | 1.57 | 2.36 | 1.48 | 2.22 | 1.79 | 1.52 | 2.19 | 1.45 | 1.93 | 1.15 | 1.39 | 2.42 | 1.32 | 1.95 | 1.32 | 1.33 | 1.14 | 1.22 | 1.98 | 1.24 |
| CC(C)CC(NC(=O)CNC(=O)c1cc(Cl)ccc1Cl)B1OC(=O)CC(CC(=O)O)(C(=O)O)O1 (stereo not given) [Ixazomib Citrate (MLN9708)] | 1.16 | 1.66 | 1.45 | 1.95 | 1.25 | 3.09 | 1.28 | 2.39 | 1 | 1.79 | 0.183 | 1.3 | 0.0694 | 0.496 | 0.099 | 0.521 | 0.104 | 0.464 | 0.067 | 0.381 |
| CN1C(C(=O)Nc2ccccn2)=C(O)c2sc(Cl)cc2S1(=O)=O [Lornoxicam] | 1.62 | 1.41 | 1.49 | 1.27 | 1.27 | 1.33 | 1.48 | 1.27 | 1.65 | 1.21 | 0.987 | 1.13 | 1.15 | 0.934 | 0.981 | 0.975 | 0.999 | 0.935 | 1.31 | 0.893 |
